Laboratory results as given in the supplement of paper PMC4967469.
A lower IC50 marks a more sensitive line; fits outside the tested doses are given as limits. AUC sums up the same curve from the lowest dose to the 256-fold higher top dose; the more sensitive the line, the further below 1. For some assays here: Where the top dose is marked as inferred, it is not printed in the source and was worked back from the curve model. For some assays here: An entry number marks a drug with two screens in the source, which often give different values.

How the values were obtained:
Assay in all cases: Viability of human cancer cell lines after 72 h of drug (GDSC screen)
[1] = compound: Cn1cc(C2=C(c3ccc(Cl)cc3Cl)C(=O)NC2=O)c2ccccc21 [SB 216763]; settings: top dose 10 µM; top dose inferred
Protocol: (§1)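 Human cancer cell lines in 384-well plates, medium with 10% serum, drug for 72 h over a 256-fold dose range (nine 2-fold or five 4-fold steps up to the top dose). Adherent lines were fixed and stained with the nucleic acid dye Syto60, suspension lines read with resazurin; signal relative to control wells, capped at 0 and 100%. One two-parameter sigmoid per drug and line, fitted in a mixed model over all curves with the slope shared within a line.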

[2] = compound: CC(C)C[C@@H](C=O)NC(=O)[C@H](CC(C)C)NC(=O)[C@H](CC(C)C)NC(=O)OCc1ccccc1 [MG-132]; settings: top dose 1 µM
Protocol: as §1

[3] = compound: C[C@]12O[C@H](C[C@]1(O)CO)n1c3ccccc3c3c4c(c5c6ccccc6n2c5c31)CNC4=O [CEP-701]; settings: top dose 2 µM; top dose inferred
Protocol: as §1

[4] = compound: CC(C)[C@H](C(=O)Nc1ccc(C(=O)NO)cc1)c1ccccc1 [AR-42]; settings: top dose 5.12 µM; top dose inferred
Protocol: as §1

[5] = compound: CCN(CC)CCNC(=O)c1c(C)[nH]c(/C=C2\C(=O)Nc3ccc(F)cc32)c1C [Sunitinib]; settings: top dose 8 µM
Protocol: as §1

[6] = compound: Cc1ccc(Nc2nccc(N(C)c3ccc4c(C)n(C)nc4c3)n2)cc1S(N)(=O)=O [Pazopanib]; settings: top dose 8 µM
Protocol: as §1

[7] = compound: CS(=O)(=O)N1CCN(Cc2cc3nc(-c4cccc5[nH]ncc45)nc(N4CCOCC4)c3s2)CC1 [GDC0941]; settings: top dose 4 µM; screen: GDSC drug entry 1527; top dose inferred
Protocol: as §1

Row | Cell Line | AUC [1] | IC50 [1] [nM] | AUC [2] | IC50 [2] [nM] | AUC [3] | IC50 [3] [nM] | AUC [4] | IC50 [4] [nM] | AUC [5] | IC50 [5] [nM] | AUC [6] | IC50 [6] [nM] | AUC [7] | IC50 [7] [nM]
1 | RPMI-6666 (Hodgkin lymphoma, suspension) | 0.978 | > 10000 | 0.821 | 738 | 0.582 | 220 | 0.292 | 72.8 | 0.797 | 4690 | 0.807 | 5120 | 0.755 | 1610
2 | RPMI-8402 (T-cell lymphoblastic leukaemia, suspension) | 0.983 | > 10000 | 0.85 | 582 | 0.446 | 91.2 | 0.198 | 49.8 | 0.756 | – | 0.982 | > 8000 | 0.348 | 102
3 | SF268 (glioma, adherent) | 0.985 | > 10000 | 0.787 | 471 | 0.632 | 298 | 0.474 | 271 | 0.786 | 3730 | 0.885 | > 8000 | 0.855 | 3570
4 | SH-4 (melanoma, adherent) | 0.964 | > 10000 | 0.475 | 51.5 | 0.494 | 119 | 0.757 | 2740 | 0.762 | 4530 | 0.762 | 4500 | 0.742 | 1860
5 | SK-ES-1 (Ewing sarcoma, semi-adherent) | 0.985 | > 10000 | 0.926 | > 1000 | 0.492 | 119 | 0.638 | 793 | 0.725 | 2290 | 0.65 | 1340 | 0.725 | 1140
6 | SK-PN-DW (Ewing sarcoma, adherent) | 0.983 | > 10000 | 0.726 | 283 | 0.542 | 164 | 0.391 | 159 | 0.879 | > 8000 | 0.981 | > 8000 | 0.701 | 944
7 | SR (lymphoid neoplasm, suspension) | 0.988 | > 10000 | 0.791 | 399 | 0.413 | 74.2 | 0.168 | 36.1 | 0.691 | 1610 | 0.873 | 6410 | 0.735 | 1080
8 | SU-DHL-6 (B-cell lymphoma, suspension) | 0.941 | > 10000 | 0.585 | 101 | 0.493 | 120 | 0.244 | 75 | 0.775 | 2390 | 0.882 | 4800 | 0.621 | 493
9 | SU-DHL-16 (B-cell lymphoma, suspension) | 0.993 | > 10000 | 0.704 | 195 | 0.384 | 65.4 | 0.162 | 46.5 | 0.789 | 2560 | 0.948 | > 8000 | 0.51 | 264
10 | SUP-T1 (T-cell lymphoblastic leukaemia, suspension) | 0.964 | > 10000 | 0.99 | > 1000 | 0.873 | 1630 | 0.339 | 119 | 0.98 | > 8000 | 0.942 | > 8000 | 0.933 | > 4000
11 | TE-1 (oesophagus, adherent) | 0.971 | > 10000 | 0.686 | 240 | 0.702 | 543 | 0.954 | > 5120 | 0.878 | > 8000 | 0.98 | > 8000 | 0.694 | 1020
12 | TE-5 (oesophagus, adherent) | 0.984 | > 10000 | 0.655 | 181 | 0.841 | 1710 | 0.951 | > 5120 | 0.966 | > 8000 | 0.977 | > 8000 | 0.728 | 1250
13 | TE-12 (oesophagus, suspension) | 0.976 | > 10000 | 0.86 | > 1000 | 0.79 | 1110 | 0.982 | > 5120 | 0.577 | 849 | 0.873 | > 8000 | 0.656 | 748
14 | TE-15 (oesophagus, suspension) | 0.985 | > 10000 | 0.854 | 959 | 0.826 | 1430 | 0.549 | 443 | 0.522 | 578 | 0.794 | 4230 | 0.845 | 3460
15 | UACC-257 (melanoma, adherent) | 0.938 | > 10000 | 0.574 | 105 | 0.771 | 961 | 0.509 | 340 | 0.848 | > 8000 | 0.93 | > 8000 | 0.892 | > 4000
16 | VA-ES-BJ (soft tissue, adherent) | 0.927 | > 10000 | 0.727 | 288 | 0.617 | 268 | 0.81 | 2870 | 0.891 | > 8000 | 0.86 | 7300 | 0.854 | 3450
17 | VCaP (prostate, adherent) | 0.913 | > 10000 | 0.791 | 466 | 0.712 | 510 | 0.298 | 84.6 | 0.962 | > 8000 | 0.976 | > 8000 | 0.841 | 2940
18 | WSU-NHL (lymphoid neoplasm, suspension) | 0.98 | > 10000 | 0.989 | > 1000 | 0.342 | 48.3 | 0.507 | 333 | 0.982 | > 8000 | 0.985 | > 8000 | 0.384 | 125
